# Screen size: about 150,000 compounds; about 540 (0.36%) showed an effect of 50% or more. This is one part of the list.
# Test system: Plasmodium falciparum
# Assay: Primary screen in NF54 nanoGlo assay, in single point, at 2uM, 72h; a lower Z score goes with more inhibition
# Type: functional, Erythrocyte
# Conditions: timepoint 72 hour
SMILES,% Inhibition,Z score
Cc1ncc(C(C)C)c(NCc2ccc(CN)cc2)n1,-10%,1.86
Nc1c2c(-c3cccc(F)c3)nc(NCc3ccccc3)nc2nn1-c1cc(F)ccc1F,-4%,0.56
CC(C)(C)OC(=O)NC1CCN(C(=O)Cn2c(=O)nc(-c3ccccc3)c3cc(Cl)ccc32)CC1,-7%,0.71
Cc1ccccc1[C@H]1CN(C(=O)c2ccc(C(C)C)[nH]c2=O)C[C@@H]1C(=O)O,-1%,0.13
Brc1ccc(-c2nc(-c3ccncc3)no2)o1,-2%,0.21
CO[C@@]12CC[C@@H](NC(C)=O)C[C@@H]1N(C(=O)CCc1c(C)nn(C)c1C)CC2,1%,-0.07
Cc1ccc2c(C(=O)N3CCN(C)CC3)cc(-c3cnn(C)c3)nc2c1C,-1%,0.09
CC(C)(C)OC(=O)[C@@H]1CCCN1c1ccc2nccnc2n1,-9%,0.77
Cc1ccc(-c2nc(CN3CCc4cncnc4C3)co2)c(C)c1,-4%,0.53
Cc1ccc(CNC(=O)c2cccc(-c3cnc4ccccc4c3)c2)cc1,-11%,1.37
Cc1nn(C)c2nc(N(CCN3CCOCC3)Cc3ccco3)sc12,-4%,0.65
O=C(O)COc1ccc(C(=O)N[C@H]2C[C@H](c3ccccc3F)C2)cc1,-2%,0.3
CCC1C(C)CCN1C(=O)c1snc(OC)c1Br (stereo unspecified),5%,-0.73
COc1ccc([C@H]2CCCCN(C(=O)N3CCOCC3)C2)cc1,28%,-3.51
Cc1ccc2nc(N3CCNCC3)c(-c3noc(-c4ccccc4)n3)cc2c1,-1%,0.18
Cc1ccc(NC(=O)Cc2nc(Cc3ccccc3F)n[nH]2)cc1,1%,-0.09
C[C@@H](C(=O)N1CCN(c2cc(=O)n(C)c(=O)n2C)CC1)N1C(=O)COc2ccccc21,-3%,0.54
O=C(Cn1ccc2ccccc21)N1CCC(c2nnc(C3CC3)o2)CC1,5%,-0.6
Cc1nc(CC(=O)NCCCc2c(C)n[nH]c2C)c(C)s1,-2%,0.27
O=C(N[C@H]1C[C@@H]2C[C@H]1CN2C(=O)NCCc1ccccc1)c1ccccc1,32%,-3.62
Cc1ccc(C2OCCCC2NC(=O)c2cnn(C)c2)cc1 (stereo unspecified),-7%,0.68
COc1nn(C)cc1CNC(=O)N[C@H](C)c1ccc(F)cc1Cl,17%,-2.85
CC(C)(C)n1nnnc1CN1CCC[C@H]1c1ncccn1,-6%,0.83
CC(C)COc1cccc([C@H]2CC(=O)Nc3c2cnn3C(C)C)c1,-7%,0.92
Cn1c(COc2ccccc2C(N)=O)nnc1-c1ccc(Cl)cc1,3%,-0.35
CN(C)Cc1ccccc1C(=O)N1CCN2C(=O)OC[C@H]2C1,2%,-0.21
Cc1cccc(C2CCC(C(=O)NC3CC3)CN2C(=O)Cc2ccccc2)c1 (stereo unspecified),9%,-1.3

SMILES,% Inhibition,Z score
CCOC(=O)N1CCC(NC(=O)c2cnn3c(-c4ccc(Cl)cc4)ccnc23)CC1,34%,-3.9
COc1ccc2nnc(CNC(=O)c3snnc3C)n2n1,24%,-3.02
C[C@H]1CCCN(C(=O)CCS(C)(=O)=O)c2ccccc21,-11%,0.94
O=C(NCC(=O)N(C[C@H]1CCCO1)C1(C(=O)NC2CCCC2)CCCCC1)c1ccccc1,2%,-0.27
COc1ccc(S(=O)(=O)N2CCC(c3cc(N)on3)CC2)cc1Cl,57%,-3.68
O=C(c1ccccn1)N1CCC2(CC1)NCCc1c2[nH]c2ccccc12,6%,-0.8
O=C(Nc1ccccc1CC(F)(F)F)NC1C2CCC(C2)C1CO (stereo unspecified),1%,-0.12
Cc1nn(CC(=O)N[C@@H](C)CO)c(=O)n1-c1ccc2c(c1)OCO2,-3%,0.51
O[C@@H]1C[C@@H](c2nnc3n2CCN(Cc2ccc4[nH]ccc4c2)C3)N(Cc2ccccc2)C1,7%,-0.98
CC(C(=O)Nc1ccc(Cl)cn1)N1CCCC1Cn1cccn1 (stereo unspecified),-11%,1.65
O=C(NCc1ncccc1O)[C@@H]1CCCN1C(=O)c1cccs1,-2%,0.38
CCN1CCCN(c2nc(C)cc(C)c2C#N)CC1=O,-9%,1.02
CN(C(=O)[C@H](N)c1ccccc1)C1CCCCC1,4%,-0.8
CCn1cc(CN2C[C@H](C3CC3)[C@@H](N(C)C)C2)cn1,-6%,0.95
CC(=Cc1cccc(C(F)(F)F)c1)CN1CCN2CCOC[C@@H]2C1,11%,-1.4
CC(=O)N1CCN2C(=O)N([C@@H](C)c3ccccc3)C(=O)[C@@H]2C1,0%,-0.03
Cn1cccc(C(=O)NCCn2nc(-c3ccncc3)cc2C2CC2)c1=O,-20%,2.58
O=C(c1cccnc1)N1CC(N(Cc2ccncc2)CC2CC2)C1,-10%,1.98
Cc1nc(Nc2cccc(F)c2)sc1C(=O)Nc1ccc2c(c1)OCCO2,0%,0.04
N#C[C@@H]1COCCN1C(=O)COCC(F)(F)F,-2%,0.29
CCOc1ccc2c(c1)[C@@H](Nc1cc(C)nc(C3CC3)n1)CCO2,6%,-0.74
Clc1ccc(OCC#CCNC[C@H]2CCCO2)cc1,3%,-0.57
O=C1C(NC(=O)N2CCO[C@H]3CCC[C@H]32)CCCN1CC(F)(F)F (stereo partly specified),5%,-0.66
COCCO[C@H]1CN(C2CCN(C(=O)c3ccoc3)CC2)C12CCCCC2,7%,-1.14
CC(C)(C)c1nc2ccccn2c1-c1ccncc1,-5%,0.82
C[C@H](NC(=O)c1n[nH]c2c1CCCC2)c1ccccn1,32%,-3.67

# From ChEMBL document CHEMBL4888484, “Replenishing the malaria drug discovery pipeline: Screening and hit evaluation of the MMV Hit Generation Library 1 (HGL1) against asexual blood stage Plasmodium falciparum ,using a nano luciferase reporter read-out” (2022)
